# From US11726087B2, “Methods, compositions, and kits for detection of aspergillosis” (priority 2013, dated 2023)
# Legend:
# native Asp f2 = molecular target: T1, native Asp f2 (Aspergillus fumigatus, UniProt P79017); experiment: Western blot, binding to native Asp f2; details: A. fumigatus culture filtrates, different glycosylation states
# T1 construct: beads were incubated with native or recombinant Asp f2; endogenous in cells; host or cells: Aspergillus fumigatus (preparation of the native protein not described for this assay)
# T1 sequence (P79017 32-310): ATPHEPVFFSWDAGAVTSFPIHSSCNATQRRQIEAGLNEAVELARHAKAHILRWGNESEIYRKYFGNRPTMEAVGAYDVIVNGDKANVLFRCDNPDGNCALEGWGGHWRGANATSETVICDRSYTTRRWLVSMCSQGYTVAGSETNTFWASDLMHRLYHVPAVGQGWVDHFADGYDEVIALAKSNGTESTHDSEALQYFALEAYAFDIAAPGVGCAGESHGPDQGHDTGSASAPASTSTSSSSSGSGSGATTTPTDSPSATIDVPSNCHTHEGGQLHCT
# Protocol: (§1) Western blots were performed to compare the binding specificity of 5D7A1 and the recombinant scFvs generated in Example 8.
# recombinant SMT3-Asp f2 = molecular target: T2, recombinant SMT3-Asp f2 (Aspergillus fumigatus, UniProt P79017); experiment: Western blot, binding to recombinant SMT3-Asp f2; design: species or system A. fumigatus
# T2 construct: 3: recombinant (r)SMT3-Asp f2; Thioredoxin (Trx) (N); His6 (internal); S-tag (internal); made in house; host or cells: Escherichia coli
# T2 sequence (P79017 32-310, added parts left off): as the sequence (P79017 32-310) above
# Protocol: as §1
molecule,measurement,setting,value
"VH-G-515-VL-Fc scFv: scFv of 5D7A1, VH linked to VL via GS15 linker, fused to human IgG Fc; SEQ ID NO: 22 (protein, VH-GS15-VL-Fc scFv) METDTLLLWVLLLWVPGSTGEVQLEESGAELARPGASVKMSCKASGYTFTTYTMHWVKQRPGQGLEWIGYINPSSGYTNYNQKFKDKATLTANKSSSIGYMQLSSLTSEDSALYYCLRRPYRSHGGWFFDVWGAGTTVTVSSAMALQASGGGGSGGGGSGGGGSASDIVMTQSQKFMSTSVGDRVSVTCKASQNVETNVAWYQQKLGQSPKALIYSASFRTSGVPDRFTGSGSGTDFTLTINNVQSEDLAEYFCQQYNTYPLTFGAGTKLELKV[human IgG1 Fc cut from this listing]",binding to native Asp f2 in Western blot,native Asp f2,bound native Asp f2
same,binding to recombinant SMT3-Asp f2 in Western blot,recombinant SMT3-Asp f2,weakly bound
